Data published in the supplement of paper PMC8728848.
Some of the results follow.

Tests used:
Experiment in all cases: glycan array binding signal (z-score within array); higher = stronger binding
Conditions in all cases: glycan notation: IUPAC condensed, linker removed
Fuc(a1-2)Gal = target: Fuc(a1-2)Gal
Outline: (§1)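 Arrays were curated from the Consortium for Functional Glycomics database, 3228 in total, and kept only where the protein sequence was available. Binding is expressed as a within-array Z-score. This score was averaged across arrays of the same protein sequence at different concentrations or buffers and across linkers, and negative values can be read as non-binding.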

Fuc(a1-2)Gal(b1-3)GalNAc = target: Fuc(a1-2)Gal(b1-3)GalNAc
Outline: as §1

[1] = target: Fuc(a1-2)Gal(b1-3)GalNAc(a1-3)[Fuc(a1-2)]Gal(b1-4)Glc
Outline: as §1

[2] = target: Fuc(a1-2)Gal(b1-3)GalNAc(a1-3)[Fuc(a1-2)]Gal(b1-4)GlcNAc
Outline: as §1

[3] = target: Fuc(a1-2)Gal(b1-3)GalNAc(b1-3)Gal
Outline: as §1

[4] = target: Fuc(a1-2)Gal(b1-3)GalNAc(b1-3)Gal(a1-4)Gal(b1-4)Glc
Outline: as §1

[5] = target: Fuc(a1-2)Gal(b1-3)GalNAc(b1-4)[Neu5Ac(a2-3)]Gal(b1-4)Glc
Outline: as §1

Fuc(a1-2)Gal(b1-3)GlcNAc = target: Fuc(a1-2)Gal(b1-3)GlcNAc
Outline: as §1

[6] = target: Fuc(a1-2)Gal(b1-3)GlcNAc(b1-2)Man(a1-3)[Fuc(a1-2)Gal(b1-3)GlcNAc(b1-2)Man(a1-6)]Man(b1-4)GlcNAc(b1-4)GlcNAc
Outline: as §1

[7] = target: Fuc(a1-2)Gal(b1-3)GlcNAc(b1-2)Man(a1-3)[Fuc(a1-2)Gal(b1-3)GlcNAc(b1-2)Man(a1-6)]Man(b1-4)GlcNAc(b1-4)[Fuc(a1-6)]GlcNAc
Outline: as §1

[8] = target: Fuc(a1-2)Gal(b1-3)GlcNAc(b1-3)Gal(b1-4)Glc
Outline: as §1

[9] = target: Fuc(a1-2)Gal(b1-3)GlcNAc(b1-3)GalNAc
Outline: as §1

[10] = target: Fuc(a1-2)Gal(b1-3)GlcNAc(b1-3)[Fuc(a1-3)[Gal(b1-4)]GlcNAc(b1-6)]Gal(b1-4)Glc
Outline: as §1

[11] = target: Fuc(a1-2)Gal(b1-3)GlcNAc(b1-3)[Gal(b1-4)GlcNAc(b1-6)]Gal(b1-4)Glc
Outline: as §1

[12] = target: Fuc(a1-2)Gal(b1-3)GlcNAc(b1-3)[Neu5Ac(a2-6)Gal(b1-4)GlcNAc(b1-6)]Gal(b1-4)Glc
Outline: as §1

[13] = target: Fuc(a1-2)Gal(b1-3)[Fuc(a1-4)]GlcNAc
Outline: as §1

[14] = target: Fuc(a1-2)Gal(b1-3)[Fuc(a1-4)]GlcNAc(b1-2)Man(a1-3)[Fuc(a1-2)Gal(b1-3)[Fuc(a1-4)]GlcNAc(b1-2)Man(a1-6)]Man(b1-4)GlcNAc(b1-4)GlcNAc
Outline: as §1

[15] = target: Fuc(a1-2)Gal(b1-3)[Fuc(a1-4)]GlcNAc(b1-3)[Fuc(a1-3)[Gal(b1-4)]GlcNAc(b1-6)]Gal(b1-4)Glc
Outline: as §1

[16] = target: Fuc(a1-2)Gal(b1-3)[Fuc(a1-4)]GlcNAc(b1-3)[Gal(b1-4)GlcNAc(b1-6)]Gal(b1-4)Glc
Outline: as §1

Fuc(a1-2)Gal(b1-4)Glc = target: Fuc(a1-2)Gal(b1-4)Glc
Outline: as §1

Fuc(a1-2)Gal(b1-4)Glc6S = target: Fuc(a1-2)Gal(b1-4)Glc6S
Outline: as §1

Fuc(a1-2)Gal(b1-4)GlcNAc = target: Fuc(a1-2)Gal(b1-4)GlcNAc
Outline: as §1

[17] = target: Fuc(a1-2)Gal(b1-4)GlcNAc(b1-2)Man(a1-3)[Fuc(a1-2)Gal(b1-4)GlcNAc(b1-2)Man(a1-6)]Man(b1-4)GlcNAc(b1-4)GlcNAc
Outline: as §1

[18] = target: Fuc(a1-2)Gal(b1-4)GlcNAc(b1-2)Man(a1-3)[Fuc(a1-2)Gal(b1-4)GlcNAc(b1-2)Man(a1-6)]Man(b1-4)GlcNAc(b1-4)[Fuc(a1-6)]GlcNAc
Outline: as §1

[19] = target: Fuc(a1-2)Gal(b1-4)GlcNAc(b1-2)[Fuc(a1-2)Gal(b1-4)GlcNAc(b1-4)]Man(a1-3)[Fuc(a1-2)Gal(b1-4)GlcNAc(b1-2)Man(a1-6)]Man(b1-4)GlcNAc(b1-4)GlcNAc
Outline: as §1

[20] = target: Fuc(a1-2)Gal(b1-4)GlcNAc(b1-3)Gal(b1-4)GlcNAc
Outline: as §1

[21] = target: Fuc(a1-2)Gal(b1-4)GlcNAc(b1-3)Gal(b1-4)GlcNAc(b1-3)Gal(b1-4)GlcNAc
Outline: as §1

[22] = target: Fuc(a1-2)Gal(b1-4)GlcNAc(b1-3)GalNAc
Outline: as §1

[23] = target: Fuc(a1-2)Gal(b1-4)GlcNAc(b1-3)[Fuc(a1-2)Gal(b1-4)GlcNAc(b1-6)]GalNAc
Outline: as §1

[24] = target: Fuc(a1-2)Gal(b1-4)GlcNAc6S
Outline: as §1

B1: NanI (Corynebacterium diphtheriae), C6JSW7 (protein)
chain: MTNTLESNPMTTTTGALTITFATTCDGPLAHIPHHLDLNIIHGRIQGTTAHRRIDAEDPDGLDDGLPHHLCLSVDTTGTHLFIDGYEAFSTTQTEWFDTSELTLNPHGDLTIIDHQILNHAPTPRQARNLAPAAEPLVWFAGSHLSTRDTQRISHLTHGSLRLLMKTRGTGQGGVAFQAHTINGDLTLEIIDGTLIFSVRCHDEDYVRITAPGRWDDGQIYDVVIVCGRGATDIYVDGQQLIHSPGAAFFNDLSGELSVHIGTAASGVRLFGEVQSGMIYPHVFNHHQVQRLATVEPIATQALFDCLLDGAQSYRIPSLITTDSGVIIAGADKRVSIANDAPNDIDFVLRRSVDGGRTWQPPRTILQLPDTACVTDSVLLQDHTTGRIFAFLDQFPAGIGQPNAAFGTGFDADGNRIGHFADGSTCTMPREVDQLEASFFSDPHTAPPGIVFQHPSCHLWMLTSDDDGLTWSTPRDLTPDVKEEWMRFCGTSPGNGIQLQRDTHAGRLLIPMYYTKGDQFFAAALYSDDHGDTWHRGESPDLEMYESTLVEASDGSVLLWARNQHPSGAVAHARSTDGGHSWSQVTFNPNVPEIFSQPNALRVTNPDGIIFANASQLLPFRGRGVLRMSTNDGASWQHNRVFNPRHYVYQCMTQLPDGSIGLLWEREMQGLFFSIIPMTWIMQGYAL
Fuc(a1-2)Gal
  glycan array binding signal (z-score): 0.72
Fuc(a1-2)Gal(b1-3)GalNAc
  glycan array binding signal (z-score): -0.163
[1]
  glycan array binding signal (z-score): -0.694
[2]
  glycan array binding signal (z-score): -0.062
[3]
  glycan array binding signal (z-score): -0.391
[4]
  glycan array binding signal (z-score): -0.71
[5]
  glycan array binding signal (z-score): 0.165
Fuc(a1-2)Gal(b1-3)GlcNAc
  glycan array binding signal (z-score): -0.286
[6]
  glycan array binding signal (z-score): 0.306
[7]
  glycan array binding signal (z-score): -0.425
[8]
  glycan array binding signal (z-score): 0.211
[9]
  glycan array binding signal (z-score): -0.909
[10]
  glycan array binding signal (z-score): 0.007
[11]
  glycan array binding signal (z-score): -1.09
[12]
  glycan array binding signal (z-score): 0.292
[13]
  glycan array binding signal (z-score): -0.975
[14]
  glycan array binding signal (z-score): 2.38
[15]
  glycan array binding signal (z-score): -0.346
[16]
  glycan array binding signal (z-score): -0.223
Fuc(a1-2)Gal(b1-4)Glc
  glycan array binding signal (z-score): 0.383
Fuc(a1-2)Gal(b1-4)Glc6S
  glycan array binding signal (z-score): 0.688
Fuc(a1-2)Gal(b1-4)GlcNAc
  glycan array binding signal (z-score): -0.111
[17]
  glycan array binding signal (z-score): -0.508
[18]
  glycan array binding signal (z-score): 1.08
[19]
  glycan array binding signal (z-score): -0.371
[20]
  glycan array binding signal (z-score): -0.027
[21]
  glycan array binding signal (z-score): -0.015
[22]
  glycan array binding signal (z-score): 0.334
[23]
  glycan array binding signal (z-score): 1.21
[24]
  glycan array binding signal (z-score): -1
